Assay results: the supplement of paper PMC11348887
Where a name gives a salt, the structure may show the parent alone. The list shows a part of the results. Rule as the data show it: active = -2 or less and inactive = the rest. Many values rest on one well or one pass, so single values are uncertain.

Test system: hPSC-derived cortical neurons (WA09)
Test: nuclei number (viability) z-score; higher = more surviving cells
Settings: 5 µM; treatment: days 7-14 after plating, readout day 21
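Also: nuclei counted from DAPI counterstain by automated high-content image analysis, four fields per well at ×20 in 384-well plates, with sequential b-score then z-score normalization.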

Row | Structure (SMILES) | nuclei number (z-score)
1 | COc1cc(N2CCC(N)CC2)ccc1Nc1ncc(Cl)c(-c2c[nH]c3ccccc23)n1 | active: -2.86
2 | CCOC(=O)n1ccn(C)c1=S [Carbimazole] | inactive: 0.0507
3 | O=C1CN(/N=C/c2ccc(-c3ccc([N+](=O)[O-])cc3)o2)C(=O)N1 [Dantrolene sodium hemiheptahydrate] | inactive: -0.486
4 | Nc1[nH]nc2nnc(-c3c(-c4ccccc4)nn4ccccc34)cc12 | inactive: 0.687
5 | Cc1cc(NS(=O)(=O)c2ccc(N)cc2)no1 [Sulfamethoxazole] | inactive: 1.12
6 | CN[C@@H]1[C@@H](O)[C@@H](O[C@@H]2[C@@H](O)[C@H](O[C@H]3OC(CN)=CC[C@H]3N)[C@@H](N)C[C@H]2N)OC[C@]1(C)O [Sisomicin sulfate] | inactive: 2.65
7 | O=C1CN(/N=C/c2ccc([N+](=O)[O-])o2)C(=O)N1 [Nitrofurantoin] | inactive: 0.639
8 | CC(C)N(CCCNC(=O)Nc1ccc(C(C)(C)C)cc1)C[C@H]1O[C@@H](n2cc(Br)c3c(N)ncnc32)[C@H](O)[C@@H]1O | inactive: -0.439
9 | CC(C)(C)C(=O)C(Oc1ccc(Cl)cc1)n1ccnc1 (configuration not stated) [Climbazole] | inactive: -1.04
10 | CC1(C)S[C@@H]2[C@H](NC(=O)C(C(=O)O)c3ccccc3)C(=O)N2[C@H]1C(=O)O (some centres not stated) [Carbenicillin disodium] | active: -2.24
11 | C[C@H](N)[C@H](O)c1cccc(O)c1 [Metaraminol Bitartrate] | inactive: -0.723
12 | Cc1cc(C)c2c(c1)[C@@H](N(Cc1cc(C(F)(F)F)cc(C(F)(F)F)c1)c1nnn(C)n1)CCCN2C[C@H]1CC[C@H](C(=O)O)CC1 | inactive: -0.522
13 | CCOC(=O)c1ncn2c1CN(C)C(=O)c1cc(F)ccc1-2 [Flumazenil] | inactive: 0.681
14 | CC1=C(C(=O)Nc2cc3cn[nH]c3cc2F)C(c2ccc(C(F)(F)F)cc2)CC(=O)N1 (configuration not stated) | inactive: -0.54
15 | CNC(=O)c1ccccc1Nc1nc(Nc2ccc(N3CCOCC3)cc2OC)ncc1Cl | active: -2.04
16 | CCCCN(Cc1ccc(C(=O)NO)cc1)C(=O)Nc1ccccc1 [Nexturastat A] | inactive: -0.196
17 | COC(=O)N[C@H](C(=O)N1CCC[C@H]1c1ncc(-c2ccc(-c3ccc(-c4cnc([C@@H]5CCCN5C(=O)[C@@H](NC(=O)OC)C(C)C)[nH]4)cc3)cc2)[nH]1)C(C)C | inactive: -0.0167
18 | CC(C(=O)O)c1cccc(C(=O)c2ccccc2)c1 (configuration not stated) [Ketoprofen] | inactive: 0.466
19 | NCCCC[C@@H]1NC(=O)[C@@H](Cc2ccccc2)NC(=O)[C@H](CC(=O)O)NC(=O)CNC(=O)[C@H](CCCN=C(N)N)NC1=O [Cyclo (-RGDfK)] | inactive: 3.69
20 | c1cc(-c2cnn3cc(-c4ccc(N5CCNCC5)cc4)cnc23)c2cccnc2c1 | active: -5.26
21 | COc1ccc(/C=C\c2cc(OC)c(OC)c(OC)c2)cc1O [Combretastatin A4] | active: -4.77

Row | Structure (SMILES) | nuclei number (z-score)
22 | CCCC1O[C@@H]2C[C@H]3[C@@H]4CCC5=CC(=O)C=C[C@]5(C)[C@H]4[C@@H](O)C[C@]3(C)[C@]2(C(=O)CO)O1 (some centres not stated) [Budesonide] | inactive: 0.723
23 | CNC(=O)[C@@H](c1ccccc1)N1CCc2cc(OC)c(OC)cc2[C@@H]1CCc1ccc(C(F)(F)F)cc1 [Almorexant HCl] | inactive: 0.0452
24 | COc1cc(C(C)=O)ccc1OCCCN1CCC(c2noc3cc(F)ccc23)CC1 [Iloperidone] | inactive: 0.171
25 | CCOC(=O)[C@H](CCc1ccccc1)N[C@H]1CCCN2CCC[C@@H](C(=O)O)N2C1=O [Cilazapril Monohydrate] | inactive: 0.446
26 | COc1ccc(C(=O)CC(=O)c2ccc(C(C)(C)C)cc2)cc1 [Avobenzone] | inactive: -0.237
27 | COc1c(N2C[C@@H]3CCCN[C@@H]3C2)c(F)cc2c(=O)c(C(=O)O)cn(C3CC3)c12 [Moxifloxacin HCl] | inactive: 0.0774
28 | COc1ccc(C(=O)c2ccccc2)c(O)c1 [Oxybenzone] | inactive: -0.606
29 | CC1(C)CCC[C@]2(C)[C@H]3CC(=O)O[C@]3(C)CC[C@@H]12 [Sclareolide] | inactive: 0.174
30 | CC(=O)OCC(=O)[C@@]1(O)[C@H](C)C[C@H]2[C@@H]3CCC4=CC(=O)C=C[C@]4(C)[C@@]3(F)[C@@H](O)C[C@@]21C [Dexamethasone Acetate] | inactive: -0.986
31 | COc1ncnc(NS(=O)(=O)c2ccc(N)cc2)c1OC [Sulfadoxine] | inactive: -1.19
32 | COc1ccc2[nH]c([S@@+]([O-])Cc3ncc(C)c(OC)c3C)nc2c1 [Esomeprazole Magnesium] | inactive: 0.243
33 | COc1ccc2[nH]c([S@@+]([O-])Cc3ncc(C)c(OC)c3C)nc2c1 [Esomeprazole Sodium] | inactive: 1.29
34 | Cc1cc(N2CCOCC2)cc2[nH]c(-c3c(NC[C@@H](O)c4cccc(Cl)c4)cc[nH]c3=O)nc12 | inactive: 0.565
35 | CC(C)NCC(O)c1ccc(O)c(O)c1 (configuration not stated) [Isoprenaline HCl] | inactive: 0.0452
36 | CS(=O)(=O)N1CCN(Cc2cc3nc(-c4cccc5[nH]ncc45)nc(N4CCOCC4)c3s2)CC1 | inactive: 0.393
37 | CC(C)(CCCCCC(O)CCCCCC(C)(C)C(=O)O)C(=O)O | inactive: 0.28
38 | Nc1nc2c(ncn2COCCO)c(=O)[nH]1 [Aciclovir] | inactive: -0.979
39 | O=S(=O)(c1ccccc1)N(CC(F)(F)F)c1ccc(C(O)(C(F)(F)F)C(F)(F)F)cc1 | inactive: 0.155
40 | CC#CC(=O)Nc1ccc2ncnc(Nc3cccc(Br)c3)c2c1 | inactive: 0.038
41 | O=C(O)c1ccc(N2C(=O)/C(=C\c3ccc(-c4ccc([N+](=O)[O-])cc4)o3)C=C2c2ccccc2)cc1 | inactive: -0.0119
42 | COc1cc(F)c(F)c(Nc2ccc(I)cc2F)c1NS(=O)(=O)C1(C[C@H](O)CO)CC1 [Refametinib (RDEA119_ Bay 86-9766)] | inactive: 0.0391

Row | Structure (SMILES) | nuclei number (z-score)
43 | CN[C@@H]1[C@@H](O)[C@@H](O[C@@H]2[C@@H](O)[C@H](O[C@H]3O[C@H](CN)[C@@H](O)[C@H](O)[C@H]3O)[C@@H](N)C[C@H]2NC(=O)[C@@H](O)CN)OC[C@]1(C)O [Isepamicin Sulphate] | inactive: 3.88
44 | C#C[C@]1(O)CC[C@H]2[C@@H]3CCc4cc(O)ccc4[C@H]3CC[C@@]21C [Ethinyl Estradiol] | inactive: 0.023
45 | O=C(O)C(Cc1c[nH]c2ccccc12)N1C(=O)c2ccccc2C1=O (configuration not stated) | inactive: 0.0815
46 | CCOc1cc(CC(=O)N[C@@H](CC(C)C)c2ccccc2N2CCCCC2)ccc1C(=O)O [Repaglinide] | inactive: 0.0855
47 | CCOC(=O)C1=C(C)NC(C)=C(C(=O)OCC)C1c1ccccc1/C=C/C(=O)OC(C)(C)C [Lacidipine] | active: -2.13
48 | C[C@@H]1O[C@@H](OC[C@H]2O[C@@H](Oc3c(-c4ccc(OCCO)c(OCCO)c4)oc4cc(OCCO)cc(O)c4c3=O)[C@H](O)[C@@H](O)[C@@H]2O)[C@H](O)[C@H](O)[C@H]1O [Troxerutin] | inactive: -0.0501
49 | CCN(CC)C(=O)/C(C#N)=C/c1cc(O)c(O)c([N+](=O)[O-])c1 [Entacapone] | inactive: 0.455
50 | O=C1C(CC[S+]([O-])c2ccccc2)C(=O)N(c2ccccc2)N1c1ccccc1 (racemic) [(+/-)-Sulfinpyrazone] | inactive: 2.79
51 | CC1(C)O[C@@H]2C[C@H]3[C@@H]4CCC5=CC(=O)CC[C@]5(C)[C@@]4(F)[C@@H](O)C[C@]3(C)[C@]2(C(=O)CCl)O1 [Halcinonide] | inactive: 0.743
52 | C[C@]12C=CC(=O)C=C1CC[C@H]1[C@@H]3C[C@@H](O)[C@](O)(C(=O)CO)[C@@]3(C)C[C@H](O)[C@@]12F [Triamcinolone] | inactive: -0.169
53 | N#Cc1ccc(COC[C@H]2O[C@@H](n3c(NCc4ccc(Cl)c(Cl)c4)nc4c(N)ncnc43)[C@H](O)[C@@H]2O)cc1 | inactive: -0.525
54 | CC(=O)O[C@H]1C[C@@H]2CC[C@@H]3[C@H](CC[C@@]4(C)[C@H]3C[C@H]([N+]3(C)CCCCC3)[C@@H]4OC(C)=O)[C@@]2(C)C[C@@H]1N1CCCCC1 [Vecuronium Bromide] | inactive: 1.3
55 | C[C@@H](O)[C@H]1C(=O)N2C(C(=O)O)=C(S[C@@H]3CN[C@H](C(=O)N(C)C)C3)[C@H](C)[C@H]12 [Meropenem] | inactive: 0.83
56 | Cn1nnc(-c2ccc3c(c2)[nH]c2nc(Cc4ccccc4)nc(NC4CCC(N)CC4)c23)n1 (configuration not stated) | active: -4.68
57 | CN(C)Cc1cccc(N=C(c2ccccc2)c2c(O)[nH]c3cc(C(=O)N(C)C)ccc23)c1 | inactive: 1.04
58 | CCCCCC(=O)O[C@]1(C(C)=O)CC[C@H]2[C@@H]3CCC4=CC(=O)CC[C@]4(C)[C@H]3CC[C@@]21C [Hydroxyprogesterone caproate] | inactive: 0.786
59 | Cc1cc2c(C(N)=O)cccc2n1-c1nc2c(c(NCc3ccccc3)n1)COCC2 | active: -6.57
60 | Cc1coc2c1C(=O)C(=O)c1c-2ccc2c1CCCC2(C)C [Tanshinone IIA] | inactive: 0.362
61 | Cc1cn2cc(C(=O)N(C)CCO)cc(N[C@@H]3CCOc4cccc(C)c43)c2n1 | inactive: -0.762
62 | CC[C@H]1OC(=O)C[C@@H](O)[C@H](C)[C@@H](O[C@@H]2O[C@H](C)[C@@H](O)[C@H](N(C)C)[C@H]2O)[C@@H](CCN2C[C@H](C)C[C@H](C)C2)C[C@@H](C)C(=O)/C=C/C(C)=C/[C@@H]1CO[C@@H]1O[C@H](C)[C@@H](O)[C@@H](OC)[C@H]1OC [Tilmicosin] | inactive: -0.0736
